This passage reports binding signal results from PMC9911399, “Two distinct binding modes provide the RNA-binding protein RbFox with extraordinary sequence specificity”.

Changes are numbered by the printed parent chain; changes in the protein carry UniProt numbers. The list shows a part of the results.

First the molecules themselves.
T1: RBFOX1 RRM RbFoxmut (Fox-RRM*) (Homo sapiens, UniProt Q9NWB1 109-208, R118D;E147R;N151S;E152T)
T1 sequence: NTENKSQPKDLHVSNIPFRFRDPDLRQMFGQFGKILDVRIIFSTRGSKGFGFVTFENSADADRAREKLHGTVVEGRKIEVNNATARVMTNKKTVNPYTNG

B1: GGGCAGG (DNA:RNA)
RNA: GGGAGACCGGAAUUCAGAUUGUCCGGGCAGGUUAAAUCCCGUCGUAGCCACCA
DNA 1: CAATCTGAATTCCGGTCTCCC
DNA 2: TGGTGGCTACGACGGGATT
B2: CAGUUAU (DNA:RNA)
RNA: B1 RNA with G25C, G26A, C28U, A29U, G30A, G31U
DNA 1: CAATCTGAATTCCGGTCTCCC
DNA 2: TGGTGGCTACGACGGGATT
B3: GUGAUUC (DNA:RNA)
RNA: B1 RNA with G26U, C28A, A29U, G30U, G31C
DNA 1: CAATCTGAATTCCGGTCTCCC
DNA 2: TGGTGGCTACGACGGGATT
B4: CCUCAUG (DNA:RNA)
RNA: B1 RNA with G25C, G26C, G27U, G30U
DNA 1: CAATCTGAATTCCGGTCTCCC
DNA 2: TGGTGGCTACGACGGGATT
B5: CUACGGG (DNA:RNA)
RNA: B1 RNA with G25C, G26U, G27A, A29G
DNA 1: CAATCTGAATTCCGGTCTCCC
DNA 2: TGGTGGCTACGACGGGATT
B6: UUUUUGG (DNA:RNA)
RNA: B1 RNA with G25U, G26U, G27U, C28U, A29U
DNA 1: CAATCTGAATTCCGGTCTCCC
DNA 2: TGGTGGCTACGACGGGATT
B7: GUGUAGC (DNA:RNA)
RNA: B1 RNA with G26U, C28U, G31C
DNA 1: CAATCTGAATTCCGGTCTCCC
DNA 2: TGGTGGCTACGACGGGATT
B8: CAGUAUU (DNA:RNA)
RNA: B1 RNA with G25C, G26A, C28U, G30U, G31U
DNA 1: CAATCTGAATTCCGGTCTCCC
DNA 2: TGGTGGCTACGACGGGATT
B9: UCAUCGG (DNA:RNA)
RNA: B1 RNA with G25U, G26C, G27A, C28U, A29C
DNA 1: CAATCTGAATTCCGGTCTCCC
DNA 2: TGGTGGCTACGACGGGATT
B10: ACGUUGA (DNA:RNA)
RNA: B1 RNA with G25A, G26C, C28U, A29U, G31A
DNA 1: CAATCTGAATTCCGGTCTCCC
DNA 2: TGGTGGCTACGACGGGATT
B11: GCCGUUA (DNA:RNA)
RNA: B1 RNA with G26C, G27C, C28G, A29U, G30U, G31A
DNA 1: CAATCTGAATTCCGGTCTCCC
DNA 2: TGGTGGCTACGACGGGATT
B12: UCAAUAG (DNA:RNA)
RNA: B1 RNA with G25U, G26C, G27A, C28A, A29U, G30A
DNA 1: CAATCTGAATTCCGGTCTCCC
DNA 2: TGGTGGCTACGACGGGATT
B13: ACGAAGA (DNA:RNA)
RNA: B1 RNA with G25A, G26C, C28A, G31A
DNA 1: CAATCTGAATTCCGGTCTCCC
DNA 2: TGGTGGCTACGACGGGATT
B14: CCACCGU (DNA:RNA)
RNA: B1 RNA with G25C, G26C, G27A, A29C, G31U
DNA 1: CAATCTGAATTCCGGTCTCCC
DNA 2: TGGTGGCTACGACGGGATT
B15: CCCGCAA (DNA:RNA)
RNA: GGGAGACCGGAAUUCAGAUUGUCCCCCGCAAUUAAAUCCCGUCGUAGCCACCA
DNA 1: CAATCTGAATTCCGGTCTCCC
DNA 2: TGGTGGCTACGACGGGATT
B16: GUGAAAC (DNA:RNA)
RNA: B1 RNA with G26U, C28A, G30A, G31C
DNA 1: CAATCTGAATTCCGGTCTCCC
DNA 2: TGGTGGCTACGACGGGATT
B17: UCUGAGA (DNA:RNA)
RNA: B15 RNA with C25U, C27U, C29A, A30G
DNA 1: CAATCTGAATTCCGGTCTCCC
DNA 2: TGGTGGCTACGACGGGATT
B18: CUGCCCU (DNA:RNA)
RNA: B15 RNA with C26U, C27G, G28C, A30C, A31U
DNA 1: CAATCTGAATTCCGGTCTCCC
DNA 2: TGGTGGCTACGACGGGATT
B19: CGCACUG (DNA:RNA)
RNA: B15 RNA with C26G, G28A, A30U, A31G
DNA 1: CAATCTGAATTCCGGTCTCCC
DNA 2: TGGTGGCTACGACGGGATT
B20: GCACUCU (DNA:RNA)
RNA: B1 RNA with G26C, G27A, A29U, G30C, G31U
DNA 1: CAATCTGAATTCCGGTCTCCC
DNA 2: TGGTGGCTACGACGGGATT
B21: AUGUAAG (DNA:RNA)
RNA: B1 RNA with G25A, G26U, C28U, G30A
DNA 1: CAATCTGAATTCCGGTCTCCC
DNA 2: TGGTGGCTACGACGGGATT
B22: GUUCGUG (DNA:RNA)
RNA: B1 RNA with G26U, G27U, A29G, G30U
DNA 1: CAATCTGAATTCCGGTCTCCC
DNA 2: TGGTGGCTACGACGGGATT
B23: CUCUGUU (DNA:RNA)
RNA: B15 RNA with C26U, G28U, C29G, A30U, A31U
DNA 1: CAATCTGAATTCCGGTCTCCC
DNA 2: TGGTGGCTACGACGGGATT
B24: GGUUGAG (DNA:RNA)
RNA: B1 RNA with G27U, C28U, A29G, G30A
DNA 1: CAATCTGAATTCCGGTCTCCC
DNA 2: TGGTGGCTACGACGGGATT
B25: CAGAGGC (DNA:RNA)
RNA: B1 RNA with G25C, G26A, C28A, A29G, G31C
DNA 1: CAATCTGAATTCCGGTCTCCC
DNA 2: TGGTGGCTACGACGGGATT
B26: UGGUCCG (DNA:RNA)
RNA: B1 RNA with G25U, C28U, A29C, G30C
DNA 1: CAATCTGAATTCCGGTCTCCC
DNA 2: TGGTGGCTACGACGGGATT
B27: CCAGUCC (DNA:RNA)
RNA: B15 RNA with C27A, C29U, A30C, A31C
DNA 1: CAATCTGAATTCCGGTCTCCC
DNA 2: TGGTGGCTACGACGGGATT
B28: CAAUUGC (DNA:RNA)
RNA: B15 RNA with C26A, C27A, G28U, C29U, A30G, A31C
DNA 1: CAATCTGAATTCCGGTCTCCC
DNA 2: TGGTGGCTACGACGGGATT
B29: CUUGCUU (DNA:RNA)
RNA: B15 RNA with C26U, C27U, A30U, A31U
DNA 1: CAATCTGAATTCCGGTCTCCC
DNA 2: TGGTGGCTACGACGGGATT
B30: GGUGACC (DNA:RNA)
RNA: B1 RNA with G27U, C28G, G30C, G31C
DNA 1: CAATCTGAATTCCGGTCTCCC
DNA 2: TGGTGGCTACGACGGGATT
B31: GCCCAAC (DNA:RNA)
RNA: B15 RNA with C25G, G28C, C29A, A31C
DNA 1: CAATCTGAATTCCGGTCTCCC
DNA 2: TGGTGGCTACGACGGGATT

For this assay, the target named is T1, RBFOX1 RRM RbFoxmut (Fox-RRM*). The experiment in a line: EMSA; HiTS-Eq, 1 nM pool, 10 min; buffer printed only for the single-RNA assays: 10 mM Tris pH 7.5, 150 mM NaCl, 3.4 mM EDTA, 0.001% NP-40, 30 C. As to conditions: tags: His6 N-terminal (pET28a); label: 5' 32P. An outline of the steps:
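A pool of RNA with 7 randomized nucleotides, 5′-radiolabelled and with DNA-annealed flanks, was equilibrated at 1 nM for 10 min in 50 µL with purified RbFox RRM, wild type or mutant, across increasing protein concentrations. Free RNA was separated by 8% native PAGE, excised, reverse-transcribed, barcoded by PCR and sequenced. Relative association constants were obtained from read-count changes of each RNA species versus the control reaction and normalised to the cognate motif.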
On the technique in general: Mobility shift assays separate free from complexed probe on a gel.
For the molecule B1, the binding signal is 0.0849 KA relative to UGCAUGU.
On to B2, for which the binding signal is 0.133 KA relative to UGCAUGU.
Regarding B3, the binding signal was 0.159 KA relative to UGCAUGU.
Turning to B4, the binding signal is 0.101 KA relative to UGCAUGU.
The result for B5 reads 0.061 KA relative to UGCAUGU.
The result for B6 reads 0.0788 KA relative to UGCAUGU.
Consider B7, for which the binding signal was 0.134 KA relative to UGCAUGU.
For the molecule B8, the binding signal is 0.119 KA relative to UGCAUGU.
The result for B9 reads 0.0932 KA relative to UGCAUGU.
Then B10, with 0.113 KA relative to UGCAUGU; and B11, with 0.0968 KA relative to UGCAUGU; and B12, with 0.0794 KA relative to UGCAUGU.
With B13, the binding signal was 0.105 KA relative to UGCAUGU.
In the case of B14, the binding signal is 0.11 KA relative to UGCAUGU.
The result for B15 reads 0.105 KA relative to UGCAUGU; that for B16, 0.0782 KA relative to UGCAUGU; that for B17, 0.0725 KA relative to UGCAUGU.
As to B18, the binding signal is 0.101 KA relative to UGCAUGU.
Turning to B19, the binding signal is 0.125 KA relative to UGCAUGU.
As for B20, the binding signal was 0.0369 KA relative to UGCAUGU.
Then B21, with 0.159 KA relative to UGCAUGU; and B22, with 0.184 KA relative to UGCAUGU; and B23, with 0.104 KA relative to UGCAUGU.
For B24, the binding signal was 0.171 KA relative to UGCAUGU.
Then B25, with 0.089 KA relative to UGCAUGU; and B26, with 0.265 KA relative to UGCAUGU; and B27, with 0.0891 KA relative to UGCAUGU.
For the molecule B28, the binding signal is 0.121 KA relative to UGCAUGU.
The result for B29 reads 0.123 KA relative to UGCAUGU; that for B30, 0.0965 KA relative to UGCAUGU; that for B31, 0.0746 KA relative to UGCAUGU.
